# From the supplement of paper PMC8728848
# This is one part of the list.
# Key:
# Test in all cases: glycan array binding signal (z-score within array); higher = stronger binding
# Details in all cases: glycan notation: IUPAC condensed, linker removed
# [1] = biological target: Neu5Ac(a2-6)Gal(b1-4)GlcNAc(b1-2)Man(a1-3)[Man(a1-6)]Man(b1-4)GlcNAc(b1-4)GlcNAc
# Outline: (§1)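 Negative Z-scores can be read as non-binding. The Z-score is calculated within each array and then averaged across arrays of one protein sequence at different concentrations or buffers and across linkers. Arrays, 3228 in all, were curated from the Consortium for Functional Glycomics database and kept only where the protein sequence was available.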
# [2] = biological target: Neu5Ac(a2-6)Gal(b1-4)GlcNAc(b1-2)Man(a1-3)[Neu5Ac(a2-3)Gal(b1-4)GlcNAc(b1-2)Man(a1-6)]Man(b1-4)GlcNAc(b1-4)GlcNAc
# Outline: as §1
# [3] = biological target: Neu5Ac(a2-6)Gal(b1-4)GlcNAc(b1-2)Man(a1-3)[Neu5Ac(a2-6)Gal(b1-4)GlcNAc(b1-2)Man(a1-6)]Man(b1-4)GlcNAc(b1-4)GlcNAc
# Outline: as §1
# [4] = biological target: Neu5Ac(a2-6)Gal(b1-4)GlcNAc(b1-2)Man(a1-3)[Neu5Ac(a2-6)Gal(b1-4)GlcNAc(b1-2)Man(a1-6)]Man(b1-4)GlcNAc(b1-4)[Fuc(a1-6)]GlcNAc
# Outline: as §1
# [5] = biological target: Neu5Ac(a2-6)Gal(b1-4)GlcNAc(b1-2)Man(a1-6)Man(b1-4)GlcNAc(b1-4)GlcNAc
# Outline: as §1
# [6] = biological target: Neu5Ac(a2-6)Gal(b1-4)GlcNAc(b1-2)Man(a1-6)[Gal(b1-4)GlcNAc(b1-2)Man(a1-3)]Man(b1-4)GlcNAc(b1-4)GlcNAc
# Outline: as §1
# [7] = biological target: Neu5Ac(a2-6)Gal(b1-4)GlcNAc(b1-2)Man(a1-6)[GlcNAc(b1-2)Man(a1-3)]Man(b1-4)GlcNAc(b1-4)GlcNAc
# Outline: as §1
# [8] = biological target: Neu5Ac(a2-6)Gal(b1-4)GlcNAc(b1-2)Man(a1-6)[Man(a1-3)]Man(b1-4)GlcNAc(b1-4)GlcNAc
# Outline: as §1
# [9] = biological target: Neu5Ac(a2-6)Gal(b1-4)GlcNAc(b1-2)[Neu5Ac(a2-6)Gal(b1-4)GlcNAc(b1-4)]Man(a1-3)[GlcNAc(b1-4)][Neu5Ac(a2-6)Gal(b1-4)GlcNAc(b1-2)[Neu5Ac(a2-6)Gal(b1-4)GlcNAc(b1-6)]Man(a1-6)]Man(b1-4)GlcNAc(b1-4)GlcNAc
# Outline: as §1
# [10] = biological target: Neu5Ac(a2-6)Gal(b1-4)GlcNAc(b1-2)[Neu5Ac(a2-6)Gal(b1-4)GlcNAc(b1-4)]Man(a1-3)[GlcNAc(b1-4)][Neu5Ac(a2-6)Gal(b1-4)GlcNAc(b1-4)Man(a1-6)]Man(b1-4)GlcNAc(b1-4)GlcNAc
# Outline: as §1
# [11] = biological target: Neu5Ac(a2-6)Gal(b1-4)GlcNAc(b1-2)[Neu5Ac(a2-6)Gal(b1-4)GlcNAc(b1-6)]Man(a1-6)[Neu5Ac(a2-6)Gal(b1-4)GlcNAc(b1-2)Man(a1-3)][GlcNAc(b1-4)]Man(b1-4)GlcNAc(b1-4)GlcNAc
# Outline: as §1
# [12] = biological target: Neu5Ac(a2-6)Gal(b1-4)GlcNAc(b1-3)Gal(b1-3)GlcNAc
# Outline: as §1
# [13] = biological target: Neu5Ac(a2-6)Gal(b1-4)GlcNAc(b1-3)Gal(b1-4)GlcNAc
# Outline: as §1
# [14] = biological target: Neu5Ac(a2-6)Gal(b1-4)GlcNAc(b1-3)Gal(b1-4)GlcNAc(b1-2)Man(a1-3)[Neu5Ac(a2-6)Gal(b1-4)GlcNAc(b1-3)Gal(b1-4)GlcNAc(b1-2)Man(a1-6)]GalNAc
# Outline: as §1
# [15] = biological target: Neu5Ac(a2-6)Gal(b1-4)GlcNAc(b1-3)Gal(b1-4)GlcNAc(b1-3)Gal(b1-4)GlcNAc
# Outline: as §1
# [16] = biological target: Neu5Ac(a2-6)Gal(b1-4)GlcNAc(b1-3)Gal(b1-4)GlcNAc(b1-3)Gal(b1-4)GlcNAc(b1-2)Man(a1-3)[Neu5Ac(a2-6)Gal(b1-4)GlcNAc(b1-3)Gal(b1-4)GlcNAc(b1-3)Gal(b1-4)GlcNAc(b1-2)Man(a1-6)]GalNAc
# Outline: as §1
# [17] = biological target: Neu5Ac(a2-6)Gal(b1-4)GlcNAc(b1-3)Gal(b1-4)GlcNAc(b1-3)GalNAc
# Outline: as §1
# [18] = biological target: Neu5Ac(a2-6)Gal(b1-4)GlcNAc(b1-3)Gal(b1-4)GlcNAc(b1-3)[Neu5Ac(a2-6)Gal(b1-4)GlcNAc(b1-3)Gal(b1-4)GlcNAc(b1-6)]GalNAc
# Outline: as §1
# [19] = biological target: Neu5Ac(a2-6)Gal(b1-4)GlcNAc(b1-3)Gal(b1-4)GlcNAc(b1-6)[Gal(b1-3)]GalNAc
# Outline: as §1
# [20] = biological target: Neu5Ac(a2-6)Gal(b1-4)GlcNAc(b1-3)Gal(b1-4)[Fuc(a1-3)]GlcNAc(b1-3)Gal(b1-4)[Fuc(a1-3)]GlcNAc
# Outline: as §1
# [21] = biological target: Neu5Ac(a2-6)Gal(b1-4)GlcNAc(b1-3)GalNAc
# Outline: as §1
# [22] = biological target: Neu5Ac(a2-6)Gal(b1-4)GlcNAc(b1-3)[Neu5Ac(a2-6)Gal(b1-4)GlcNAc(b1-6)]GalNAc
# Outline: as §1
# [23] = biological target: Neu5Ac(a2-6)Gal(b1-4)GlcNAc(b1-6)GalNAc
# Outline: as §1
# [24] = biological target: Neu5Ac(a2-6)Gal(b1-4)GlcNAc(b1-6)[Gal(b1-3)GlcNAc(b1-3)]Gal(b1-4)Glc
# Outline: as §1
# [25] = biological target: Neu5Ac(a2-6)Gal(b1-4)GlcNAc(b1-6)[Gal(b1-3)]GalNAc
# Outline: as §1
# [26] = biological target: Neu5Ac(a2-6)Gal(b1-4)GlcNAc6S
# Outline: as §1
# Neu5Ac(a2-6)GalNAc = biological target: Neu5Ac(a2-6)GalNAc
# Outline: as §1
# [27] = biological target: Neu5Ac(a2-6)GalNAc(b1-4)GlcNAc
# Outline: as §1
# [28] = biological target: Neu5Ac(a2-6)GalNAc(b1-4)GlcNAc6S
# Outline: as §1
# [29] = biological target: Neu5Ac(a2-6)GlcNAc(b1-4)GlcNAc
# Outline: as §1
# [30] = biological target: Neu5Ac(a2-6)GlcNAc(b1-4)GlcNAc(b1-4)GlcNAc
# Outline: as §1
binder,measurement,setting,value
GS7807P-bth-537-23-537 (Bacteroides thetaiotaomicron) (protein) NYENINSNPYEAPDLSADGYALGSAMNNLAGCVVSPDVNTAQFTDCLLGGPLGGYFADSNAGFTETISNFNPKDDWSRVFLKSDKIIPTLYSNLTQVKLVSQNTNDPVPYAIAQVIKVAAMHRVTDAFGPIPYSQIGANGEIATPYDSQEVTYNTFFDELNAAIATLNENSNEQLVPTADYIYKGDVKKWIRFANSLKLRLAIRIAYANPVKAQQMAEEAVNPANGGVIESNADNATWNYFETSQNPIYVATRYNQVQTSDHGGVPCLTGGDTHAAADIICYMNGYKDNRREKFFTKSEWAGQDYVGMRRGIVIPELKTTGHKYSGVNIAPTSPLYWMNAAEVAFLRAEGQAVFNFSMGGTAESFYNQGIRLSFEQWGADGVEDYLKDDVNKPTAYTDPAGTNTYQNALSNITIKWNDSADKEEKQERIIVQKWIANWQLGNEAWADFRRTGYPKLIPVKENKSGGVVDSEKGARRMPYPLDEFVSNKANVEYAIANYLHGADNMATDVWWASKK,glycan array binding signal (z-score),[1],1.81
same,glycan array binding signal (z-score),[2],-0.201
same,glycan array binding signal (z-score),[3],-0.039
same,glycan array binding signal (z-score),[4],0.269
same,glycan array binding signal (z-score),[5],0.297
same,glycan array binding signal (z-score),[6],0.657
same,glycan array binding signal (z-score),[7],-0.384
same,glycan array binding signal (z-score),[8],5.2
same,glycan array binding signal (z-score),[9],-0.083
same,glycan array binding signal (z-score),[10],1.12
same,glycan array binding signal (z-score),[11],1.38
same,glycan array binding signal (z-score),[12],-0.34
same,glycan array binding signal (z-score),[13],-0.361
same,glycan array binding signal (z-score),[14],0.625
same,glycan array binding signal (z-score),[15],-0.38
same,glycan array binding signal (z-score),[16],-0.124
same,glycan array binding signal (z-score),[17],-0.372
same,glycan array binding signal (z-score),[18],-0.089
same,glycan array binding signal (z-score),[19],1.39
same,glycan array binding signal (z-score),[20],1.22
same,glycan array binding signal (z-score),[21],-0.099
same,glycan array binding signal (z-score),[22],0.841
same,glycan array binding signal (z-score),[23],0.024
same,glycan array binding signal (z-score),[24],0.485
same,glycan array binding signal (z-score),[25],0.929
same,glycan array binding signal (z-score),[26],-0.39
same,glycan array binding signal (z-score),Neu5Ac(a2-6)GalNAc,-0.393
same,glycan array binding signal (z-score),[27],-0.396
same,glycan array binding signal (z-score),[28],-0.331
same,glycan array binding signal (z-score),[29],-0.2
same,glycan array binding signal (z-score),[30],-0.389
